In the supplement of paper PMC10126150:
Values marked as one replicate rest on one cluster of the flow cell; about a third of the high ones do not repeat.

Test system: ATP
Assay: switch fluorescence ratio, 500 uM ATP over buffer (Cy3 cluster intensity, sum of 5 cycles each) (fold (ratio)); higher = stronger signal-on switching upon ATP binding; sequences stand for … in TCGTCGGCAGCGTCAGATGTGTATAAGAGACAGTTTTTTTTTTTTTTTTTTTTTTTTT…TC
Conditions: aptamer strand: ATP DNA aptamer (quencher-CACCTGGGGGAGTATTGCGGAGGAAGG + anchor), 100 nM annealed; ATP concentration: 500 uM; one replicate
In short: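 Cy3-labelled switching-strand clusters on a modified Illumina MiSeq flow-cell were annealed to 100 nM quencher-labelled ATP aptamer, imaged in selection buffer, then imaged after 15 min with 500 uM ATP at 22 °C. Five buffer/ATP cycles ran, with NaOH stripping and re-annealing between them. The fluorescence ratio is summed target-cycle over summed buffer-cycle Cy3 intensity per cluster, averaged per switch-domain sequence. Clusters outside 100-1000 RFU were excluded.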
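Also: ATP exposure 15 min at 22 °C before imaging.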

Sequence	switch fluorescence ratio
CTCATTCGGG	0.968
AAGGGGGCT	1.01
TCCAGCGTTG	1.02
CGTGGCGAAA	1.21
AGATAACTGG	1.05
CGCTTGCGGA	1.01
GGGAATGGCC	1.04
TTGAAATTCG	0.988
AAAGCTCTG	0.977
AATTACATCT	1.21
TCAAGGAGAA	1.01
ATTTACTAA	1.04
AAGTTGGTT	0.973
TCTTCTAGAT	1.01
TAAATGGGGC	0.996
AGGCGTCAG	0.954
AAGGAATGGC	1.04
AACGTTGAGG	0.986
GCTATTCGGG	1.01
CCTAAAGCGC	1.16
CGTAATCCTA	1.05
CTTTGCTTGT	0.988
ACCGCATTCT	2.44
GCGTCGTTGG	1.04
GCGATATTAT	0.999
ATTCAACGC	1.09

Sequence	switch fluorescence ratio
GCGGTTTGGG	0.954
GCGCATGAAT	0.958
CTGGTAATTC	1.08
ACTGACGCGA	1.16
CACCAAAT	1
CACTGAGCGG	1.02
GAATTGAAAG	1.15
GGTATCAGTG	0.899
AGAAAGATTA	1.01
TGGGTATGAG	0.943
GCAAGGGGG	1.04
GGACTACGGT	1.01
GGCTTAGAG	0.936
GTGCTGCGTC	1.03
ATTTCTTCT	1.04
AAGCAATTTT	1.04
TCGGGAGT	1.02
CGCAGGTCGA	1.09
GGCATTATTG	0.986
TTCAGGACAA	1.01
CCTAAAGGGC	1
ATCGAGCATC	1.07
AGAGTATACT	0.969
GCAAGTCGAC	1.01
CGTTCAAGGG	0.985
ATATCGGCTC	0.95

Sequence	switch fluorescence ratio
CTATGGCGT	1.03
CAGTTCCCCC	1.04
ATGCGATAAA	0.998
GGACGGAGCT	1.76
ACTACCGATC	1.45
TACTGTGCAG	1.01
GACAGATAAT	0.956
GGAATTAACC	0.999
ACGCTTGGC	1.08
TTGACACCTT	1.2
GGTATGGACC	1.02
GCGAAGAAGC	1.03
CCGACCTGGG	1.16
TTCCGGCTGG	2.05
AGTGTCACCG	0.986
GTGTCAACA	0.996
GGGGCCGTGT	0.931
TAAACATGCG	0.978
GGTGCGCAGG	0.954
TGCTGTGTTA	0.995
CAGGATTTGT	0.988
GACGTCAATA	1.2
TTCAGACTGC	1.1
TCTGGTAGAC	1.1
AAGGAGATAG	1.01
TAGTTCGCTG	0.974

Sequence	switch fluorescence ratio
GGAGCATATG	1.52
AAATTACTAC	1.06
CTGACTAAT	1.04
TGTCTGCCAG	0.985
GCGACTATTT	0.985
CTCCATTGAC	2.23
GATGCAAGTA	1.09
ATGATGACTT	0.949
CTCTCAGAT	0.971
CACTGAGGAC	0.938
ATTTTGAATT	1.04
AGCTTTCTTG	0.962
TCAGTGTAA	1.05
GTTGGGTCCG	0.97
GCGGGTAACG	0.985
ACAATATGC	1.1
GACCATGAAG	0.981
ACCTACCAGG	1.11
GAGTGGCCTA	1.04
GCCGTAAGTT	1.03
GTCCGAAAAA	0.983
AGTGGCAACT	1.02
TCGGGGCTGA	1
TATTAGCTTC	1.05
TCTCTTTTTG	0.991
ATCTCATGCT	0.988

Sequence	switch fluorescence ratio
CAGTAGAGTG	0.989
TTGCATACAA	1.06
GGCACAGGTC	1.08
AGAGCACGT	1.04
TAATTTGGCG	0.949
TGATCGAACA	1
TGTAGGTAAT	0.991
CCAGTGACAG	1.1
TGAGGGAATC	1
GTCAGTTAAA	0.988
TTTCACTGG	1
TCATGGATCG	0.973
AATACGCTGG	0.999
TAGGGTAACA	0.991
GCCATGGGAA	1.01
CACGCGGCCG	1.05
TTGATTAACT	1
ATCCCTGGAC	1.06
AATCCTAGAA	0.985
ACGCGGAGGG	1.06
AGGCCAAGTT	1.02
AACTGATGTA	1
AACAGGTGCG	1.32
TCAGCAAAGG	1.16
GAAGGTCAAG	0.962
GAATTCTCTG	0.989

Sequence	switch fluorescence ratio
CATGCACAGT	1.05
TTAGGCG	0.976
TTCGTACGG	0.961
ATTTCGGGTA	0.99
GTGTCAGGAA	0.966
TCTATTGCCG	1.1
ACTGCGGTTC	1.13
ATGTAAAGCT	1.15
GCAGAACTGG	1.03
TGTATTTATG	0.996
TACACATGTT	1.02
AGAAGCTCCT	0.981
GAGACCCTCT	1.04
TCTAGATATA	0.995
CCAGTAGGTG	1.67
TAGTTCGTGG	0.896
CTAGTTCCGT	0.992
GTTTACTGGT	0.989
GAAGCAGGCC	1.06
TATGGCGCTT	1.01
CTATTTCGGT	0.99
GGGTGCTTTT	0.982
GACTGTTAGA	0.975
GTGGTGCGTG	0.98
ATATGCGTC	0.976
CGCGGCAGGT	1.05

Sequence	switch fluorescence ratio
ACGACTCTGG	0.981
CCGATAAAC	1.19
TATGGCAAA	1
ACCTCCGGTC	1.37
AGGATCCCTG	1
ACGGCCACAC	1.25
TTTGAAGCCA	2.47
TAATAGGCGG	1.01
AATTCATCTT	0.99
GTATGGGCGA	1.02
ATATTGAGAG	1.04
GGACGAAAAC	1.01
AAAATAGTTG	1.02
TACTAAGACC	1.01
GGCAAAATTT	0.988
CGGGGTGCCC	1.02
CGGGGTCAAA	1.02
GGTGCGAAAA	0.999
CTCGGATGAA	0.986
AGATGACAGT	1.04
CAAACGTACT	1.76
AAGATCTATG	0.979
CAGGGGCCAG	0.988
GGACGGAGAG	1.04
GAGTTAATCT	1.03
ACGTCGTGGA	1.05

Sequence	switch fluorescence ratio
GATTGTAGA	0.986
AAGGCCCTCT	0.932
CATACTGGTG	1.22
CACACTCTGC	1.08
ACTGGAGATT	1
GATGGTGAAG	0.968
AATAGGCGAG	1.01
CATTTACCTG	1.01
ATATAGATTC	1.05
CGTATGCCAT	0.973
AAGCAAGTTG	1.13
AGATCTGCTC	0.963
TGAAAAATGC	1.35
GGTTCGTACC	0.979
TGACTCATAA	1.08
TTCGCCTGGT	1.04
AATTACTCTT	1.03
ATTCGTTACG	0.969
TGTGAGGAA	1.02
